# Read counts are not given, so values of variants with three or more changes are uncertain.
# B1: LINE1-mini (parent)
# chain: GGCAGAGCUCAACACAGCGUGGCAAAGUGGCUGUGGCUAGACUGCC
# Variants of: B1
# Test: self-cleavage, relative activity (ratio to wild type); higher = more cleavage; in vitro, sequencing; the parent is a self-cleaving ribozyme
row,Variant,self-cleavage
1,AGCAGAGCUUAACACAGCGUGGCAAAGUAGCUGUGGCUAGACUGGC [G1A C10U G29A C45G],0.16
2,GGCAGAGCUCAACACACAGGGGCAAAGUGGCUGUGGCUAGACUGCC [G17C C18A U20G],0.04
3,GGCAGAGUUCAACACAGUGAGGCAAAGUGGCUGUGGCUAGACUGCC [C8U C18U U20A],0.11
4,GGCGGAGCUCAACACAGCGUGGCAAAGUGGCUGUGGCUGGGCUGCC [A4G A39G A41G],0.02
5,GGCAUAGCGCUACACAGAGUGGCAAAGUUGCUGUGGCUAGACUGCC [G5U U9G A11U C18A G29U],0.02
6,GGCAGAGCGCAACACAGCGGGGCAAAGUGGCUGUGGCUAGACUUCC [U9G U20G G44U],0.04
7,GGAAGAGCUCAACACAGCGUGGCAAAGUGGCUGUGAAUAGACUGCC [C3A G36A C37A],1.08
8,GGCAUAGCUCAACACAGCCUGGCAAAGUGGCUCUGGCUAGACCGCC [G5U G19C G33C U43C],0.02
9,GGCAGAGUUCAACACAACGUAGCAAAGUGGCUCUGGCUAGACUACC [C8U G17A G21A G33C G44A],0.1
10,GGCAGAGCUCAAUACGCCGUGGCAAAGUGGCUGCGGCUAGAAUGCC [C13U A16G G17C U34C C42A],0.11
11,GGCAGAGUUCAACACAGCGUGGAAAUGGGGCUUUGGCUAGACUGCC [C8U C23A A26U U28G G33U],0.22
12,GCUAGUGCUUUACACAGCCUGGAAAAAUGGCUGUGGCUAGACUGCC [G2C C3U A6U C10U A11U G19C C23A G27A],0.01
13,GGCAGAGCUCAACACAGCGUGGCAAAGUGACGGUGGCUAGCCUGUC [G30A U32G A41C C45U],0.02
14,GGCAGAGCUCAACACAGCGUGGCGAAGUGGCGGUGGCUAGACUCCC [A24G U32G G44C],0.12
15,GGCAGAGCGCAACACAGCGUGGCAAAGUGGGUGUGGCUAGACAGCC [U9G C31G U43A],0.07
16,GGCAGAGCUCAACACAGAGUGGCAGAGUGUCUGUGGCUAGACUGCC [C18A A25G G30U],0.81
17,GGCAGACCUCAACCCAGCGUGGCAAAGUGGCUGAGGCUAGACUGCC [G7C A14C U34A],0
18,GGGAGAUCUCAAAACAGCGUGGCAAAGUGGCUGUGACUAGACUGCC [C3G G7U C13A G36A],0.8
19,GGCAGAGCUCAAGACAGCAUGGCAAAGUGGCUGUGGCCCGACUGCC [C13G G19A U38C A39C],0.03

row,Variant,self-cleavage
1,GGCAGAGUUCAACACAGCGUGGAAAAGUGGCUGUGGCUAGAAUGCC [C8U C23A C42A],0.22
2,GGCAGAGCGCAACACAGCGUGGCAAACUGGCUAUGUCUAGACUGCC [U9G G27C G33A G36U],0.03
3,GGCACAGCUCAAUACAGCGUGGCAAAGUUGCUGUGGCUAGACUGCC [G5C C13U G29U],0.06
4,UACAGAGCUCAAGACAGCGUAGCAAAGUGGCUGUUGCUAGACUGCC [G1U G2A C13G G21A G35U],0.2
5,GGCAGAGCUCAACACAGCGUGGCAAAGUUGCUGUGGCUAGAAAGCC [G29U C42A U43A],0.01
6,GGCAGAGCUCAAGACAGCGUGGCAAAGUUACUGUGGCUACACAGCC [C13G G29U G30A G40C U43A],0.04
7,GGCAGAGCUCAACAUAGCGUGGCAAAGUGGCUGGUGCUAGACUGCC [C15U U34G G35U],0.06
8,GGCAGAGCUCAACACAGCGUGGCAAAGUGGCUGUAGCGUGACUGCC [G35A U38G A39U],0.03
9,GGCAGAGCUCAAGACAUCGUGGCAAAGUGGCUGUGGCUAGUCUACC [C13G G17U A41U G44A],0.08
10,GGCAGAGCUCAACUCAGCGUGGCAAAGUGGCUGAGGCUCAACUGCC [A14U U34A A39C G40A],0.02
11,GGCAGGGCUCAACACAGCGAGGCAAAGUGGCUGUGGCUAGACUUCC [A6G U20A G44U],0.1
12,GGCACAGCUCCACACAGCGUGGCAAAGUGGAUGUGGCUAGACUGCC [G5C A11C C31A],0.02
13,GGCAGAGCUCGACACAGCGUGCGAAAGUGGCUGUAGCGACACGGCC [A11G G22C C23G G35A U38G G40C U43G],0
14,CGCAGAGCUCAACACAGCUUGGCAAAGUGGCUGUGACUGGACUGCC [G1C G19U G36A A39G],0.04
15,GGCAGAGCUAAAUACAGCGUGGCCAAGUGGCUGUGGUUAGACUGCC [C10A C13U A24C C37U],0.01
16,GGGAGAACUCAACAAAGCGUGGCAAAGUGGUUGUGGCGAGACUGCC [C3G G7A C15A C31U U38G],0.09
17,GGCAGAGCUCAAUACAGCGAGGCAAAGUGGCUGUGGCCAGACUGCC [C13U U20A U38C],0.04
18,GGCAGAGCUAGACACAGCGUGGCAACGUGGCUGUGGCUAGCCUGCC [C10A A11G A26C A41C],0.02
19,GGGAGAUCUCAACUCAGCGUGGAAAAGUGGCUGUGGCUAGCCCACC [C3G G7U A14U C23A A41C U43C G44A],0.1

row,Variant,self-cleavage
1,GGCAGCGCUCAACACAGCGUGGCAAAGUGGCUGUUGAUAAACUGCC [A6C G35U C37A G40A],0.07
2,GGCAGAGCUAAACAACGUGUGGCAGAGUGGCUGUGGCUAGACUGCC [C10A C15A A16C C18U A25G],0.02
3,GGCAGAGGUCAAUGCAGCGCGGCAAAGUGGCUGUGGCUAGACUGCC [C8G C13U A14G U20C],0.04
4,GGAAGAGCUCAAAACCGCGUGGCAAAGUGGCUGUGGCUAGACUGCU [C3A C13A A16C C46U],0
5,GGCAGAUCUCAACACAGCGUGGCAAACUGGCUGUGGCUAUACUGCC [G7U G27C G40U],0.41
6,GGCAGACCUCAACACAGCGUAGCACAGUGGCUGUGGCUAGAAUGCC [G7C G21A A25C C42A],0.09
7,GGCAGAAUUCAACACACCCUGGCAAACUGGCAGUGGCUAGAAUGCC [G7A C8U G17C G19C G27C U32A C42A],0.05
8,AGCAGAGCACAACAGAGCGUGGCCAAGUGGCAGUUGCUAGACGGCC [G1A U9A C15G A24C U32A G35U U43G],0.09
9,GGCAAAGCUCAACACAGCGUGGCAAAAUGGCUAUGGCUAGACUGGC [G5A G27A G33A C45G],0.09
10,GGCAUAGCUCAACACAGCGUGGUAAAGUGGCUGUGGCUAGACUGAC [G5U C23U C45A],0.1
11,GGCAGAGCUCAACAUAGUGUGGCAAAGUGGCAGUGGCAAGACUGCC [C15U C18U U32A U38A],0.15
12,GGCAGACCUCAACACAGCGUGGCCAAGUGGCUGUGGCUAGAUUGCC [G7C A24C C42U],0.1
13,GGGAGAGCUCCGCACAGCGUGGGGAAGUGGCUGUGGCUGGACUGCC [C3G A11C A12G C23G A24G A39G],0.01
14,GGCAGAGCUAAACACAGCGUGGCAAAGUGCCUGUAGAUAGACUGCC [C10A G30C G35A C37A],0.01
15,GGCAGAGCUCAACACAGGGUGGCCAAGUGGCCGUGGCUAGACUGCC [C18G A24C U32C],0.02
16,AGCAGAGCUAAACGCAGGCUGGCAAAGUGGCUGUGGCUAGACUGCC [G1A C10A A14G C18G G19C],0.01
17,GGCAGAGCUCAAUACAGCGUGGAAAAGUGUAUGUGGCUAAACUGCC [C13U C23A G30U C31A G40A],0.02
18,GGCAGAGCUCAGCACCGCGUUGCAAAGCGGCUAUGGCUAGACUGCC [A12G A16C G21U U28C G33A],0.01

# From the RNAGym collection of RNA variant scans (doi:10.7554/elife.90254)
